Laboratory results from article PMC3395220 (Journal of Medicinal Chemistry, 2012).
Where two headings read alike, the source gives them in different places.

Tests used:
NCI-H322M = assay type: cell-based, human; settings: 10^Δ2-x, relative to compound 2
MALME-3M = assay type: cell-based, human; settings: 10^Δ2-x, relative to compound 2

`CO[C@@H]([C@@H]1Cc2cc3cc(O[C@H]4C[C@@H](O[C@H]5C[C@@H](O)[C@H](O)[C@@H](C)O5)[C@H](O)[C@@H](C)O4)c(C)c(O)c3c(O)c2C(=O)[C@H]1O[C@H]1C[C@@H](O[C@H]2C[C@@H](O[C@H]3C[C@H](O)[C@H](O)[C@@H](C)O3)[C@H](O)[C@@H](C)O2)[C@H](O)[C@@H](C)O1)[C@@H](O)C(C)=O` [Compound 9, demycarosyl-3D-β-D-digitoxosyl-mithramycin SK] gave an activity improvement factor (NCI-H322M; […]) of 2.43 and an activity improvement factor (MALME-3M) of 1.23.

Compound `CO[C@H](C(=O)C(C)=O)[C@@H]1Cc2cc3cc(O[C@H]4C[C@@H](O[C@H]5C[C@@H](O)[C@H](O)[C@@H](C)O5)[C@H](O)[C@@H](C)O4)c(C)c(O)c3c(O)c2C(=O)[C@H]1O[C@H]1C[C@@H](O[C@H]2C[C@@H](O[C@H]3C[C@H](O)[C@H](O)[C@@H](C)O3)[C@H](O)[C@@H](C)O2)[C@H](O)[C@@H](C)O1` [Compound 11, demycarosyl-3D-β-D-digitoxosyl-mithramycin SDK] has an activity improvement factor (NCI-H322M; NCI-H322M) of 3.63 and an activity improvement factor (MALME-3M) of 0.69.
